Measured values from the supplement of paper PMC10126150.
Values marked as one replicate rest on one cluster of the flow cell; about a third of the high ones do not repeat.
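Note: ATP exposure 15 min at 22 °C before imaging.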

These sequences were tested on ATP (assay: switch fluorescence ratio, 500 uM ATP over buffer (Cy3 cluster intensity, sum of 5 cycles each) (fold (ratio)); higher = stronger signal-on switching upon ATP binding; sequences stand for … in TCGTCGGCAGCGTCAGATGTGTATAAGAGACAGTTTTTTTTTTTTTTTTTTTTTTTTT…TC). Details: aptamer strand: ATP DNA aptamer (quencher-CACCTGGGGGAGTATTGCGGAGGAAGG + anchor), 100 nM annealed; ATP concentration: 500 uM; one replicate.
Procedure, shortened: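 Per cluster, summed Cy3 intensity from the target cycles was divided by that from the buffer cycles to give the fluorescence ratio, then averaged per switch-domain sequence. Clusters outside 100-1000 RFU were excluded. The Cy3-labelled switching-strand clusters, on a modified Illumina MiSeq flow-cell, were annealed to 100 nM quencher-labelled ATP aptamer and imaged in selection buffer, then after 15 min with 500 uM ATP at 22 °C, for five cycles with NaOH stripping and re-annealing between them.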
AGATGTTCTG showed a switch fluorescence ratio of 0.978. AGATTAGCTT gave a switch fluorescence ratio of 1.02. With AGATTCCTCT the switch fluorescence ratio was 1.05. For AGATTGAATA, the switch fluorescence ratio was 1. With AGATTGGTAT the switch fluorescence ratio was 1.01. Work on AGATTGTATT yielded a switch fluorescence ratio of 0.993. Sequence AGATTTATAA has a switch fluorescence ratio of 1.04. Sequence AGATTTCTAT has a switch fluorescence ratio of 1.02. With AGATTTTATC the switch fluorescence ratio was 1.03. With AGCAACAGGT the switch fluorescence ratio was 1.07. For AGCAACCCGG, the switch fluorescence ratio was 1.39. In the case of AGCAACGTGC, the switch fluorescence ratio is reported as 1.01. In the case of AGCAAGCACC, the switch fluorescence ratio is reported as 1.79. For AGCAATCACG, the switch fluorescence ratio was 3.09. Work on AGCACAGACT yielded a switch fluorescence ratio of 1.31. For AGCACAGGAA, the switch fluorescence ratio was 1.02. Work on AGCACCGTG yielded a switch fluorescence ratio of 1.02. In the case of AGCACGCTGA, the switch fluorescence ratio is reported as 1.01. Sequence AGCACGCTTA has a switch fluorescence ratio of 0.99. AGCACGGAGT gave a switch fluorescence ratio of 1.04. With AGCACGGCCA the switch fluorescence ratio was 1.05. Work on AGCACGTATT yielded a switch fluorescence ratio of 1.13. Sequence AGCACGTTGG has a switch fluorescence ratio of 1.02. Sequence AGCAGACCGC has a switch fluorescence ratio of 1.03. In the case of AGCAGAGTAA, the switch fluorescence ratio is reported as 0.988. In the case of AGCAGATAGT, the switch fluorescence ratio is reported as 1.09. With AGCAGCACTG the switch fluorescence ratio was 1.03. In the case of AGCAGCTGTT, the switch fluorescence ratio is reported as 0.986. With AGCAGGAATC the switch fluorescence ratio was 1.12. In the case of AGCAGGCACA, the switch fluorescence ratio is reported as 1.08. In the case of AGCAGGGAGA, the switch fluorescence ratio is reported as 1.02. AGCAGGGCCA showed a switch fluorescence ratio of 1.02. AGCAGGGTTA was tested, and the switch fluorescence ratio was 0.988. Work on AGCAGTCCGT yielded a switch fluorescence ratio of 1.02. Sequence AGCAGTCTTA has a switch fluorescence ratio of 0.964. In the case of AGCAGTTACA, the switch fluorescence ratio is reported as 1.08. AGCAGTTG gave a switch fluorescence ratio of 1.03. Work on AGCATATA yielded a switch fluorescence ratio of 1.17. For AGCATATGTT, the switch fluorescence ratio was 1.03. Work on AGCATATTGA yielded a switch fluorescence ratio of 1.02. Sequence AGCATGGGCT has a switch fluorescence ratio of 1. Work on AGCATGGGTA yielded a switch fluorescence ratio of 0.947. Work on AGCATTTAGC yielded a switch fluorescence ratio of 1.04. For AGCCAGCCAA, the switch fluorescence ratio was 1.06. Work on AGCCAGCCGA yielded a switch fluorescence ratio of 0.972. Sequence AGCCAGTTTA has a switch fluorescence ratio of 0.992. Work on AGCCCCGGTC yielded a switch fluorescence ratio of 0.958. Sequence AGCCCTGTCT has a switch fluorescence ratio of 1.03. For AGCCGAAGTT, the switch fluorescence ratio was 1.03. Sequence AGCCGAATGT has a switch fluorescence ratio of 1.01. With AGCCGCATGC the switch fluorescence ratio was 4.11. Work on AGCCGGTACC yielded a switch fluorescence ratio of 1.02. AGCCGTAGAG was tested, and the switch fluorescence ratio was 0.946. AGCCGTGGCG was tested, and the switch fluorescence ratio was 0.946. In the case of AGCCTAAATA, the switch fluorescence ratio is reported as 1.01. In the case of AGCCTACTCG, the switch fluorescence ratio is reported as 1.17. AGCCTACTTA showed a switch fluorescence ratio of 1.02. AGCCTCTCGG was tested, and the switch fluorescence ratio was 0.964. For AGCCTGATTA, the switch fluorescence ratio was 1.02. With AGCCTGGATA the switch fluorescence ratio was 1.01. Work on AGCCTGGTT yielded a switch fluorescence ratio of 1.01. With AGCGAATAAT the switch fluorescence ratio was 1.05. AGCGAATACG showed a switch fluorescence ratio of 1.63. AGCGACTTTC was tested, and the switch fluorescence ratio was 1.01. AGCGAGAATG gave a switch fluorescence ratio of 1. Work on AGCGAGGAAT yielded a switch fluorescence ratio of 0.987. AGCGAGGCA showed a switch fluorescence ratio of 1.02. AGCGATAAAG showed a switch fluorescence ratio of 0.986. AGCGATCTCA gave a switch fluorescence ratio of 1.15. In the case of AGCGCCCGCA, the switch fluorescence ratio is reported as 1.07. AGCGCCGTGC gave a switch fluorescence ratio of 1.03. Work on AGCGCGGGGT yielded a switch fluorescence ratio of 0.992. Sequence AGCGGAGCCG has a switch fluorescence ratio of 0.884. AGCGGCATAA showed a switch fluorescence ratio of 1.04. Sequence AGCGGGTAC has a switch fluorescence ratio of 1.23. In the case of AGCGGTCGCC, the switch fluorescence ratio is reported as 0.958. AGCGGTGGAG gave a switch fluorescence ratio of 0.994. Sequence AGCGGTTATG has a switch fluorescence ratio of 0.963. AGCGTAACGG was tested, and the switch fluorescence ratio was 0.995. AGCGTCACTT gave a switch fluorescence ratio of 1.04. Work on AGCGTCCT yielded a switch fluorescence ratio of 0.983. AGCGTCTAGT was tested, and the switch fluorescence ratio was 0.969. With AGCGTGATCG the switch fluorescence ratio was 1.04. For AGCGTGCTT, the switch fluorescence ratio was 0.966. With AGCGTGGAAC the switch fluorescence ratio was 1.01. With AGCTAAACTT the switch fluorescence ratio was 1.05. Work on AGCTAACAG yielded a switch fluorescence ratio of 1. AGCTAACTTA gave a switch fluorescence ratio of 0.986. With AGCTAGGGCA the switch fluorescence ratio was 1.03. Work on AGCTAGGTTA yielded a switch fluorescence ratio of 0.98. Work on AGCTATAAGT yielded a switch fluorescence ratio of 0.996. In the case of AGCTATCGTT, the switch fluorescence ratio is reported as 1.01. AGCTATGAAG showed a switch fluorescence ratio of 1.01. For AGCTATGCAC, the switch fluorescence ratio was 0.994. In the case of AGCTATGGAC, the switch fluorescence ratio is reported as 1.09. AGCTCATTC showed a switch fluorescence ratio of 1.02. Sequence AGCTCGTAAT has a switch fluorescence ratio of 1.05. In the case of AGCTCGTTCC, the switch fluorescence ratio is reported as 1.15. AGCTCTAGGC gave a switch fluorescence ratio of 0.997. In the case of AGCTCTCCGG, the switch fluorescence ratio is reported as 1.18. AGCTCTCTCA gave a switch fluorescence ratio of 1.03. Work on AGCTCTGCAT yielded a switch fluorescence ratio of 1.39. For AGCTCTGCCA, the switch fluorescence ratio was 1.03. With AGCTCTTACC the switch fluorescence ratio was 1. AGCTGATGTA was tested, and the switch fluorescence ratio was 1.01. Sequence AGCTGCTCTG has a switch fluorescence ratio of 0.975. With AGCTGGGATA the switch fluorescence ratio was 1.01. For AGCTGGGGCC, the switch fluorescence ratio was 1.01. With AGCTGTTCGC the switch fluorescence ratio was 1.04. In the case of AGCTTACAAT, the switch fluorescence ratio is reported as 1.02. In the case of AGCTTACG, the switch fluorescence ratio is reported as 1.09. With AGCTTAGTGC the switch fluorescence ratio was 1.08. With AGCTTATG the switch fluorescence ratio was 0.977. AGCTTGACTC gave a switch fluorescence ratio of 1.08. Sequence AGCTTGCGG has a switch fluorescence ratio of 1.09. In the case of AGCTTTCGAA, the switch fluorescence ratio is reported as 1.03. For AGCTTTTTCT, the switch fluorescence ratio was 1.1. In the case of AGGAAAATAA, the switch fluorescence ratio is reported as 1.03. Work on AGGAAACCGA yielded a switch fluorescence ratio of 1.45. With AGGAAAGGAG the switch fluorescence ratio was 0.995. Work on AGGAAAGTCA yielded a switch fluorescence ratio of 1.01. AGGAAATCAT gave a switch fluorescence ratio of 0.969. In the case of AGGAAATGGA, the switch fluorescence ratio is reported as 1.03. AGGAAATTAG gave a switch fluorescence ratio of 0.986. In the case of AGGAAATTGG, the switch fluorescence ratio is reported as 0.972. AGGAACGTAT was tested, and the switch fluorescence ratio was 1.02. Sequence AGGAAGCACT has a switch fluorescence ratio of 1.02. In the case of AGGAAGCTGG, the switch fluorescence ratio is reported as 0.975. AGGAATATAG was tested, and the switch fluorescence ratio was 0.999. For AGGAATGCT, the switch fluorescence ratio was 1.06. In the case of AGGAATGTTG, the switch fluorescence ratio is reported as 0.986. Sequence AGGACACAG has a switch fluorescence ratio of 0.997. AGGACATATC gave a switch fluorescence ratio of 1.05. With AGGACATGTG the switch fluorescence ratio was 1.09. Work on AGGACATTCC yielded a switch fluorescence ratio of 1.67. For AGGACCATTT, the switch fluorescence ratio was 1.02. With AGGACCCGTC the switch fluorescence ratio was 1.03. In the case of AGGACCGTCC, the switch fluorescence ratio is reported as 1.06. AGGACTCTT gave a switch fluorescence ratio of 0.988. With AGGAGACCT the switch fluorescence ratio was 1.28. For AGGAGCAAGT, the switch fluorescence ratio was 1.21. AGGAGCTAAT gave a switch fluorescence ratio of 1.02. AGGAGGTGTT showed a switch fluorescence ratio of 1.01. For AGGAGGTTAA, the switch fluorescence ratio was 0.972. Sequence AGGAGTACAG has a switch fluorescence ratio of 0.961. AGGAGTCTGC showed a switch fluorescence ratio of 0.994. For AGGATAAGT, the switch fluorescence ratio was 0.971. With AGGATAATCT the switch fluorescence ratio was 0.966. AGGATCATTA showed a switch fluorescence ratio of 0.976. AGGATCGCTC was tested, and the switch fluorescence ratio was 1.02. In the case of AGGATGACTA, the switch fluorescence ratio is reported as 1.04. AGGATGAGTA gave a switch fluorescence ratio of 0.962. For AGGATGGGAC, the switch fluorescence ratio was 1.02. In the case of AGGATGGGT, the switch fluorescence ratio is reported as 0.982. With AGGATTAGCA the switch fluorescence ratio was 0.989. Sequence AGGCAAAAGT has a switch fluorescence ratio of 1.04. Work on AGGCAAGGGT yielded a switch fluorescence ratio of 1.2. For AGGCACTGCT, the switch fluorescence ratio was 1.02. Sequence AGGCAGACCA has a switch fluorescence ratio of 0.97. For AGGCAGCGAC, the switch fluorescence ratio was 0.965. Work on AGGCAGGGG yielded a switch fluorescence ratio of 1.05. AGGCATATGA gave a switch fluorescence ratio of 0.962. Work on AGGCATCGAA yielded a switch fluorescence ratio of 1.02. In the case of AGGCATCTGT, the switch fluorescence ratio is reported as 0.984. AGGCCAACGT was tested, and the switch fluorescence ratio was 1.03. AGGCCAATTT was tested, and the switch fluorescence ratio was 0.934. AGGCCAGGCC was tested, and the switch fluorescence ratio was 1.05. AGGCCATCAG was tested, and the switch fluorescence ratio was 0.991. AGGCCCGTAA was tested, and the switch fluorescence ratio was 1.09. With AGGCCCTACC the switch fluorescence ratio was 1.06. With AGGCCGACAG the switch fluorescence ratio was 1.02. AGGCCGACCT showed a switch fluorescence ratio of 0.946. Sequence AGGCCGATAG has a switch fluorescence ratio of 1.01. AGGCCGATC showed a switch fluorescence ratio of 0.966. For AGGCCTAGAA, the switch fluorescence ratio was 1.04. Work on AGGCCTATTC yielded a switch fluorescence ratio of 1.01. AGGCCTCTA gave a switch fluorescence ratio of 1.01. For AGGCCTTGAA, the switch fluorescence ratio was 0.996. AGGCGAAACA was tested, and the switch fluorescence ratio was 1.03. AGGCGACCAT showed a switch fluorescence ratio of 1.01. AGGCGAGAGA was tested, and the switch fluorescence ratio was 1.02. AGGCGATTTG showed a switch fluorescence ratio of 0.967. AGGCGCCATC showed a switch fluorescence ratio of 1.01. Sequence AGGCGGAATA has a switch fluorescence ratio of 1.1. Sequence AGGCGTACTA has a switch fluorescence ratio of 1.04. AGGCGTGGCA gave a switch fluorescence ratio of 1. Work on AGGCTCTTTC yielded a switch fluorescence ratio of 1. For AGGCTGTTTG, the switch fluorescence ratio was 1. AGGGAAATTC gave a switch fluorescence ratio of 0.96. For AGGGAAGAGC, the switch fluorescence ratio was 1.05. In the case of AGGGAAGGCT, the switch fluorescence ratio is reported as 1.05. AGGGAATATG showed a switch fluorescence ratio of 0.973. AGGGAATCGC showed a switch fluorescence ratio of 1.03. In the case of AGGGACCACC, the switch fluorescence ratio is reported as 1.05. Work on AGGGAGACCG yielded a switch fluorescence ratio of 1.03. AGGGAGCAAT gave a switch fluorescence ratio of 3.04. In the case of AGGGAGGATG, the switch fluorescence ratio is reported as 0.968. AGGGAGGTTC gave a switch fluorescence ratio of 1.06. Sequence AGGGATAAGG has a switch fluorescence ratio of 0.957. For AGGGATCATT, the switch fluorescence ratio was 0.946. AGGGATGGAA gave a switch fluorescence ratio of 0.947.
